The other results are listed elsewhere or left out. The energies were worked out here from pooled read counts, against the library average; single values are noisy.

For the test, the target named is T1, Pho4 (S. cerevisiae) (UniProt P07270).
T1 sequence: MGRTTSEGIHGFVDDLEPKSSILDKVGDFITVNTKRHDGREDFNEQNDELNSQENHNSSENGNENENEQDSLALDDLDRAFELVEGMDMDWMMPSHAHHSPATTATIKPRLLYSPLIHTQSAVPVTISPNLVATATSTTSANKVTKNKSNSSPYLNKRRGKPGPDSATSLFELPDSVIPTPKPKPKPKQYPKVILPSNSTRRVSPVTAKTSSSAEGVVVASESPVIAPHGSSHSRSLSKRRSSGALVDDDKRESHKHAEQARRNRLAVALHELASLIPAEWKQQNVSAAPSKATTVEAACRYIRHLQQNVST
As to the kind of experiment: relative binding free energy (BET-seq); higher = weaker binding. The settings on record: reference: library average.
As to ATGACCACGTGTGTGG, the “relative binding free energy” value is -0.377 kJ/mol.

For TGGCTCACGTGCTGGT, the “relative binding free energy” value worked out at 0.335 kJ/mol.

With AGCGGCACGTGGTTGG, the “relative binding free energy” value was -0.669 kJ/mol.

Take GGTTGCACGTGCATAG: the “relative binding free energy” value was -0.628 kJ/mol.

Regarding ATGAGCACGTGGTGTC, the “relative binding free energy” value is -0.795 kJ/mol.

With ATAGTCACGTGTGCAT, the “relative binding free energy” value was 0.126 kJ/mol.

On to GGTTACACGTGGGCAG, for which the “relative binding free energy” value stood at 0 kJ/mol.

On to ACTAGCACGTGATGGG, for which the “relative binding free energy” value is -0.0837 kJ/mol.

For the sequence GTGGCCACGTGGGAGG, the “relative binding free energy” value was -0.628 kJ/mol.

As for TGGAGCACGTGATGCT, the “relative binding free energy” value stood at 0.251 kJ/mol.

In the case of GATGTCACGTGTGCTA, the “relative binding free energy” value stood at 0.293 kJ/mol.

As to GAATGCACGTGAGATT, the “relative binding free energy” value amounted to 1.42 kJ/mol.

Consider CGGGACACGTGTTGGG, for which the “relative binding free energy” value came out at 0.293 kJ/mol.

Turning to GTCGTCACGTGCGTGT, the “relative binding free energy” value was determined as 0.0837 kJ/mol.

With GGAGCCACGTGTGGGC, the “relative binding free energy” value is -0.0837 kJ/mol.

With AATTACACGTGAATGT, the “relative binding free energy” value turned out to be 1.72 kJ/mol.

With TCAGGCACGTGAGCGG, the “relative binding free energy” value was found to be 0.377 kJ/mol.

On to TTTCGCACGTGGCATT, for which the “relative binding free energy” value is -0.418 kJ/mol.

GTTGTCACGTGTTAAT: the “relative binding free energy” value came out at 0.837 kJ/mol.

Consider AATAGCACGTGGGCTT, for which the “relative binding free energy” value was -0.335 kJ/mol.

GCAGTCACGTGGAGTT: the “relative binding free energy” value stood at 0.962 kJ/mol.

For the sequence ATTAACACGTGCTTTT, the “relative binding free energy” value stood at 0 kJ/mol.

As to TGTCGCACGTGTAGGC, the “relative binding free energy” value amounted to 0.167 kJ/mol.

For the sequence AGTTGCACGTGTTTCG, the “relative binding free energy” value was found to be 0.209 kJ/mol.

For AGAGACACGTGGTTTT, the “relative binding free energy” value came out at 0.0418 kJ/mol.

Turning to TGTCTCACGTGGTGGG, the “relative binding free energy” value amounted to 0.628 kJ/mol.

Consider GGAGACACGTGGAGTG, for which the “relative binding free energy” value came to 0.126 kJ/mol.

Turning to TTGGGCACGTGAGACA, the “relative binding free energy” value was determined as 0.167 kJ/mol.

Take TGGCACACGTGCTAGG: the “relative binding free energy” value came to 0.293 kJ/mol.

Consider AGAGTCACGTGGGCAG, for which the “relative binding free energy” value worked out at 0.209 kJ/mol.

In the case of AATTTCACGTGTTCGT, the “relative binding free energy” value was 0.92 kJ/mol.

Take GGTAGCACGTGGAGCA: the “relative binding free energy” value is -0.418 kJ/mol.

As to AATGTCACGTGGGACG, the “relative binding free energy” value was -0.251 kJ/mol.

As for AGTTGCACGTGTGTGA, the “relative binding free energy” value is -0.209 kJ/mol.

ATCTTCACGTGAGGTG: the “relative binding free energy” value was 1.26 kJ/mol.

Turning to CTTCGCACGTGGGTTG, the “relative binding free energy” value was -0.628 kJ/mol.

TTTCGCACGTGTCTGG: the “relative binding free energy” value is 0.0837 kJ/mol.

Consider TTCGTCACGTGACAGG, for which the “relative binding free energy” value was 0.837 kJ/mol.

As for AGGGACACGTGGTGAG, the “relative binding free energy” value is 0.0418 kJ/mol.

In the case of TTAAACACGTGGTAGC, the “relative binding free energy” value came out at 0.418 kJ/mol.

Take TAGTGCACGTGGCTGT: the “relative binding free energy” value is -0.335 kJ/mol.

Take TGGATCACGTGTAGGG: the “relative binding free energy” value stood at 0.753 kJ/mol.

AGACGCACGTGCGGGG: the “relative binding free energy” value is -1.09 kJ/mol.

Turning to GTTTTCACGTGGTCTG, the “relative binding free energy” value is 1.21 kJ/mol.

As to AATTACACGTGGCTTG, the “relative binding free energy” value is 0.209 kJ/mol.

On to CTTGACACGTGGTAAG, for which the “relative binding free energy” value is -0.0837 kJ/mol.

Consider GTGAACACGTGGCAGG, for which the “relative binding free energy” value is -0.293 kJ/mol.

On to CTTGGCACGTGAAGCG, for which the “relative binding free energy” value stood at 1.3 kJ/mol.

Consider GACTGCACGTGGTGTG, for which the “relative binding free energy” value turned out to be 0.0837 kJ/mol.

For GTTAACACGTGGGACG, the “relative binding free energy” value is -0.251 kJ/mol.

As for TTATGCACGTGCTTCA, the “relative binding free energy” value was -0.209 kJ/mol.

TGTCGCACGTGTGGCG: the “relative binding free energy” value is -0.126 kJ/mol.

For the sequence TCGAGCACGTGGATGT, the “relative binding free energy” value was -0.377 kJ/mol.

For AAGGTCACGTGGATTC, the “relative binding free energy” value came out at 1.05 kJ/mol.

In the case of AAGTTCACGTGGGCTG, the “relative binding free energy” value amounted to 1.17 kJ/mol.

Turning to GTTTTCACGTGGTAGT, the “relative binding free energy” value was found to be 1.26 kJ/mol.

Take CCGGGCACGTGTTATG: the “relative binding free energy” value was -0.209 kJ/mol.

Take TTTCACACGTGGGATG: the “relative binding free energy” value was -0.209 kJ/mol.

As for TTAGACACGTGAGTGT, the “relative binding free energy” value was determined as 0.92 kJ/mol.

As for ATGCTCACGTGAGGAT, the “relative binding free energy” value was 1.51 kJ/mol.

Consider GAGATCACGTGGGTTG, for which the “relative binding free energy” value is 0.377 kJ/mol.

In the case of GCTGGCACGTGTGATT, the “relative binding free energy” value is -0.209 kJ/mol.

On to TGTGACACGTGTATGA, for which the “relative binding free energy” value was -0.0837 kJ/mol.

On to ATTTTCACGTGTCCTT, for which the “relative binding free energy” value was found to be 1.72 kJ/mol.

ACTGTCACGTGGTTAT: the “relative binding free energy” value was -0.126 kJ/mol.

For GTTATCACGTGAGATA, the “relative binding free energy” value was 1.55 kJ/mol.

TTTTGCACGTGCAGGC: the “relative binding free energy” value is -0.167 kJ/mol.

Turning to GTTCACACGTGGTGGT, the “relative binding free energy” value was found to be 0.293 kJ/mol.

For AGAGGCACGTGTTTTA, the “relative binding free energy” value stood at 0.0418 kJ/mol.

In the case of TTTGGCACGTGATCAG, the “relative binding free energy” value was -0.502 kJ/mol.

As for TAGTACACGTGCTTGT, the “relative binding free energy” value came to 0.167 kJ/mol.

As for AGGGGCACGTGCGCAG, the “relative binding free energy” value was -0.795 kJ/mol.

On to TAAGGCACGTGTGAAG, for which the “relative binding free energy” value is 0 kJ/mol.

Turning to ATGGCCACGTGTTATT, the “relative binding free energy” value amounted to 0.293 kJ/mol.

With AAGTCCACGTGGTAGG, the “relative binding free energy” value came to 0.126 kJ/mol.

With GGGGTCACGTGCTTTA, the “relative binding free energy” value was found to be 0.126 kJ/mol.

Regarding ACATTCACGTGTAGTT, the “relative binding free energy” value was 1.13 kJ/mol.

GTTAGCACGTGGGCTG: the “relative binding free energy” value is -0.502 kJ/mol.

As for AGTAACACGTGAGGGG, the “relative binding free energy” value turned out to be 0.879 kJ/mol.

Consider TGCTTCACGTGTGAGC, for which the “relative binding free energy” value was 1.46 kJ/mol.

For the sequence AAGTGCACGTGATAGT, the “relative binding free energy” value worked out at 0 kJ/mol.

In the case of TGTGGCACGTGGGCTA, the “relative binding free energy” value was -0.879 kJ/mol.

For TAAATCACGTGTCTTG, the “relative binding free energy” value stood at 0.335 kJ/mol.

Regarding TCTTTCACGTGTAAGG, the “relative binding free energy” value turned out to be 1.42 kJ/mol.

ACGGGCACGTGCGAGG: the “relative binding free energy” value is -0.209 kJ/mol.

For the sequence ATGGACACGTGAAAGT, the “relative binding free energy” value was found to be 1.21 kJ/mol.

In the case of TTCGGCACGTGGATGG, the “relative binding free energy” value is -0.335 kJ/mol.

Consider GTTACCACGTGTTTTT, for which the “relative binding free energy” value is -0.126 kJ/mol.

As for GGGCTCACGTGTGTAG, the “relative binding free energy” value amounted to 1.09 kJ/mol.

TGTGTCACGTGTGGGT: the “relative binding free energy” value is 0.795 kJ/mol.

In the case of GTCGGCACGTGGGTTT, the “relative binding free energy” value is -0.795 kJ/mol.

As for CGGGCCACGTGTTTGT, the “relative binding free energy” value was found to be 0.251 kJ/mol.

For TATAACACGTGAGGTC, the “relative binding free energy” value worked out at 1.59 kJ/mol.

On to CGTATCACGTGAAAGT, for which the “relative binding free energy” value is 1.8 kJ/mol.

Turning to TGGCACACGTGCGGGT, the “relative binding free energy” value was -0.711 kJ/mol.

Take GGTAACACGTGGGGTT: the “relative binding free energy” value is -0.126 kJ/mol.

For the sequence GGGGTCACGTGAGACA, the “relative binding free energy” value was determined as 1.84 kJ/mol.

For ATACGCACGTGTGTAT, the “relative binding free energy” value was -0.0418 kJ/mol.

Turning to GTGAGCACGTGGATGG, the “relative binding free energy” value was -0.0837 kJ/mol.

On to GTTAGCACGTGGGTCT, for which the “relative binding free energy” value is -0.544 kJ/mol.

In the case of TTATACACGTGTTTTG, the “relative binding free energy” value was determined as 0 kJ/mol.

On to TTGGTCACGTGCTGCT, for which the “relative binding free energy” value stood at 0.0418 kJ/mol.

Take AGGGGCACGTGACAAG: the “relative binding free energy” value is -0.46 kJ/mol.

As to GCGCTCACGTGGGGGG, the “relative binding free energy” value came to 0.126 kJ/mol.

Take GAGAGCACGTGACGGG: the “relative binding free energy” value turned out to be 0.209 kJ/mol.

In the case of CTTATCACGTGGATGG, the “relative binding free energy” value came to 0.628 kJ/mol.

On to AGGGTCACGTGAAAAG, for which the “relative binding free energy” value worked out at 1.05 kJ/mol.

Consider TGGCGCACGTGGAGTT, for which the “relative binding free energy” value is -0.377 kJ/mol.

Consider CTTGACACGTGGTCGG, for which the “relative binding free energy” value was -0.293 kJ/mol.

Take TTCATCACGTGCAGTT: the “relative binding free energy” value worked out at 0.628 kJ/mol.

With ACAGTCACGTGTGAGT, the “relative binding free energy” value turned out to be 0.167 kJ/mol.

With AAGTTCACGTGGGGGA, the “relative binding free energy” value was 0.669 kJ/mol.

As for TTTGGCACGTGGGAGC, the “relative binding free energy” value was -0.293 kJ/mol.

For TGCAGCACGTGAAGGG, the “relative binding free energy” value amounted to 0.711 kJ/mol.

Consider TTCATCACGTGTTTGG, for which the “relative binding free energy” value was 0 kJ/mol.

Source of the values: the BET-seq Pho4 binding data (Le et al. 2018).
